Results taken from the supplement of paper PMC8728848.
This is one part of the list.

Experiments:
Experiment in all cases: glycan array binding signal (z-score within array); higher = stronger binding
Conditions in all cases: glycan notation: IUPAC condensed, linker removed
[1] = biological target: Fuc(a1-2)Gal6S(b1-3)GlcNAc6S
How it was run: (§1)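 The binding signal is a Z-score computed within each array. Data were drawn from 3228 arrays in the Consortium for Functional Glycomics database, restricted to those with a known protein sequence. Scores were averaged over arrays of the same protein sequence at different concentrations or buffers, and over linkers, and negative values can be taken as non-binding.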

[2] = biological target: Fuc(a1-2)Gal6S(b1-4)Glc
How it was run: as §1

[3] = biological target: Fuc(a1-2)Gal6S(b1-4)Glc6S
How it was run: as §1

[4] = biological target: Fuc(a1-2)[Gal(a1-3)]Gal
How it was run: as §1

[5] = biological target: Fuc(a1-2)[Gal(a1-3)]Gal(b1-3)GalNAc
How it was run: as §1

[6] = biological target: Fuc(a1-2)[Gal(a1-3)]Gal(b1-3)GalNAc(b1-3)Gal(a1-4)Gal(b1-4)Glc
How it was run: as §1

[7] = biological target: Fuc(a1-2)[Gal(a1-3)]Gal(b1-3)GlcNAc
How it was run: as §1

[8] = biological target: Fuc(a1-2)[Gal(a1-3)]Gal(b1-3)GlcNAc(b1-2)Man(a1-3)[Fuc(a1-2)[Gal(a1-3)]Gal(b1-3)GlcNAc(b1-2)Man(a1-6)]Man(b1-4)GlcNAc(b1-4)GlcNAc
How it was run: as §1

[9] = biological target: Fuc(a1-2)[Gal(a1-3)]Gal(b1-3)GlcNAc(b1-2)Man(a1-3)[Fuc(a1-2)[Gal(a1-3)]Gal(b1-3)GlcNAc(b1-2)Man(a1-6)]Man(b1-4)GlcNAc(b1-4)[Fuc(a1-6)]GlcNAc
How it was run: as §1

[10] = biological target: Fuc(a1-2)[Gal(a1-3)]Gal(b1-3)GlcNAc(b1-3)GalNAc
How it was run: as §1

[11] = biological target: Fuc(a1-2)[Gal(a1-3)]Gal(b1-3)GlcNAc(b1-6)GalNAc
How it was run: as §1

[12] = biological target: Fuc(a1-2)[Gal(a1-3)]Gal(b1-4)Glc
How it was run: as §1

[13] = biological target: Fuc(a1-2)[Gal(a1-3)]Gal(b1-4)GlcNAc
How it was run: as §1

[14] = biological target: Fuc(a1-2)[Gal(a1-3)]Gal(b1-4)GlcNAc(b1-2)Man
How it was run: as §1

[15] = biological target: Fuc(a1-2)[Gal(a1-3)]Gal(b1-4)GlcNAc(b1-2)Man(a1-3)[Fuc(a1-2)[Gal(a1-3)]Gal(b1-4)GlcNAc(b1-2)Man(a1-6)]Man(b1-4)GlcNAc(b1-4)GlcNAc
How it was run: as §1

[16] = biological target: Fuc(a1-2)[Gal(a1-3)]Gal(b1-4)GlcNAc(b1-2)Man(a1-3)[Fuc(a1-2)[Gal(a1-3)]Gal(b1-4)GlcNAc(b1-2)Man(a1-6)]Man(b1-4)GlcNAc(b1-4)[Fuc(a1-6)]GlcNAc
How it was run: as §1

[17] = biological target: Fuc(a1-2)[Gal(a1-3)]Gal(b1-4)GlcNAc(b1-3)GalNAc
How it was run: as §1

[18] = biological target: Fuc(a1-2)[Gal(a1-3)]Gal(b1-4)GlcNAc(b1-3)[Fuc(a1-2)[Gal(a1-3)]Gal(b1-4)GlcNAc(b1-6)]GalNAc
How it was run: as §1

[19] = biological target: Fuc(a1-2)[Gal(a1-3)]Gal(b1-4)GlcNAc(b1-6)GalNAc
How it was run: as §1

[20] = biological target: Fuc(a1-2)[Gal(a1-3)]Gal(b1-4)[Fuc(a1-3)]Glc
How it was run: as §1

[21] = biological target: Fuc(a1-2)[Gal(a1-3)]Gal(b1-4)[Fuc(a1-3)]GlcNAc
How it was run: as §1

[22] = biological target: Fuc(a1-2)[Gal(a1-3)]Gal(b1-4)[Fuc(a1-3)]GlcNAc(b1-3)GalNAc
How it was run: as §1

[23] = biological target: Fuc(a1-2)[Gal(a1-4)]Gal(b1-4)GlcNAc
How it was run: as §1

[24] = biological target: Fuc(a1-2)[GalNAc(a1-3)]Gal
How it was run: as §1

[25] = biological target: Fuc(a1-2)[GalNAc(a1-3)]Gal(b1-3)GalNAc(a1-3)[Fuc(a1-2)]Gal(b1-4)GlcNAc
How it was run: as §1

[26] = biological target: Fuc(a1-2)[GalNAc(a1-3)]Gal(b1-3)GalNAc(b1-3)Gal(a1-4)Gal(b1-4)Glc
How it was run: as §1

[27] = biological target: Fuc(a1-2)[GalNAc(a1-3)]Gal(b1-3)GlcNAc
How it was run: as §1

[28] = biological target: Fuc(a1-2)[GalNAc(a1-3)]Gal(b1-3)GlcNAc(b1-2)Man(a1-3)[Fuc(a1-2)[GalNAc(a1-3)]Gal(b1-3)GlcNAc(b1-2)Man(a1-6)]Man(b1-4)GlcNAc(b1-4)GlcNAc
How it was run: as §1

[29] = biological target: Fuc(a1-2)[GalNAc(a1-3)]Gal(b1-3)GlcNAc(b1-2)Man(a1-3)[Fuc(a1-2)[GalNAc(a1-3)]Gal(b1-3)GlcNAc(b1-2)Man(a1-6)]Man(b1-4)GlcNAc(b1-4)[Fuc(a1-6)]GlcNAc
How it was run: as §1

[30] = biological target: Fuc(a1-2)[GalNAc(a1-3)]Gal(b1-3)GlcNAc(b1-3)GalNAc
How it was run: as §1

[31] = biological target: Fuc(a1-2)[GalNAc(a1-3)]Gal(b1-3)GlcNAc(b1-6)GalNAc
How it was run: as §1

[32] = biological target: Fuc(a1-2)[GalNAc(a1-3)]Gal(b1-4)Glc
How it was run: as §1

[33] = biological target: Fuc(a1-2)[GalNAc(a1-3)]Gal(b1-4)GlcNAc
How it was run: as §1

[34] = biological target: Fuc(a1-2)[GalNAc(a1-3)]Gal(b1-4)GlcNAc(b1-2)Man
How it was run: as §1

[35] = biological target: Fuc(a1-2)[GalNAc(a1-3)]Gal(b1-4)GlcNAc(b1-2)Man(a1-3)[Fuc(a1-2)[GalNAc(a1-3)]Gal(b1-4)GlcNAc(b1-2)Man(a1-6)]Man(b1-4)GlcNAc(b1-4)GlcNAc
How it was run: as §1

[36] = biological target: Fuc(a1-2)[GalNAc(a1-3)]Gal(b1-4)GlcNAc(b1-2)Man(a1-3)[Fuc(a1-2)[GalNAc(a1-3)]Gal(b1-4)GlcNAc(b1-2)Man(a1-6)]Man(b1-4)GlcNAc(b1-4)[Fuc(a1-6)]GlcNAc
How it was run: as §1

[37] = biological target: Fuc(a1-2)[GalNAc(a1-3)]Gal(b1-4)GlcNAc(b1-3)Gal(b1-4)GlcNAc
How it was run: as §1

[38] = biological target: Fuc(a1-2)[GalNAc(a1-3)]Gal(b1-4)GlcNAc(b1-3)Gal(b1-4)GlcNAc(b1-3)Gal(b1-4)GlcNAc
How it was run: as §1

[39] = biological target: Fuc(a1-2)[GalNAc(a1-3)]Gal(b1-4)GlcNAc(b1-3)GalNAc
How it was run: as §1

[40] = biological target: Fuc(a1-2)[GalNAc(a1-3)]Gal(b1-4)GlcNAc(b1-3)[Fuc(a1-2)[GalNAc(a1-3)]Gal(b1-4)GlcNAc(b1-6)]GalNAc
How it was run: as §1

[41] = biological target: Fuc(a1-2)[GalNAc(a1-3)]Gal(b1-4)GlcNAc(b1-6)GalNAc
How it was run: as §1

[42] = biological target: Fuc(a1-2)[GalNAc(a1-3)]Gal(b1-4)[Fuc(a1-3)]GlcNAc
How it was run: as §1

[43] = biological target: Fuc(a1-2)[GalNAc(a1-3)]Gal(b1-4)[Fuc(a1-3)]GlcNAc(b1-3)GalNAc
How it was run: as §1

[44] = biological target: Fuc(a1-2)[GalNAc(a1-4)]Gal(b1-4)GlcNAc
How it was run: as §1

[45] = biological target: Fuc(a1-2)[GalNAc(b1-3)]Gal
How it was run: as §1

B1: OGAA (protein)
chain: MVQKESQATLEERESELSSNPAASAGASLEPPAAPAPGEDNPAGAGGAAVAGAAGGARRFLCGVVEGFYGRPWVMEQRKELFRRLQKWELNTYLYAPKDDYKHRMFWREMYSVEEAEQLMTLISAAREYEIEFIYAISPGLDITFSNPKEVSTLKRKLDQVSQFGCRSFALLFADIDHNMCAADKEVFSSFAHAQVSITNEIYQYLGEPETFLFCPTEYCGTFCYPNVSQSPYLRTVGEKLLPGIEVLWTGPKVVSKEIPVESIEEVSKIIKRAPVIWDNIHANDYDQKRLFLGPYKGRSTELIPRLKGVLTNPNCEFEANYVAIHTLATWYKSNMNGVRKDVVMTDSEDSTVSIQIKLENEGSDEDIETDVLYSPQMALKLALTEWLQEFGVPHQY
glycan array binding signal (z-score) [1]: 1.74
glycan array binding signal (z-score) [2]: -0.073
glycan array binding signal (z-score) [3]: 0.205
glycan array binding signal (z-score) [4]: -0.049
glycan array binding signal (z-score) [5]: -0.034
glycan array binding signal (z-score) [6]: -0.067
glycan array binding signal (z-score) [7]: 0.126
glycan array binding signal (z-score) [8]: -0.069
glycan array binding signal (z-score) [9]: 0
glycan array binding signal (z-score) [10]: -0.109
glycan array binding signal (z-score) [11]: -0.109
glycan array binding signal (z-score) [12]: -0.064
glycan array binding signal (z-score) [13]: -0.078
glycan array binding signal (z-score) [14]: -0.084
glycan array binding signal (z-score) [15]: -0.092
glycan array binding signal (z-score) [16]: -0.058
glycan array binding signal (z-score) [17]: -0.076
glycan array binding signal (z-score) [18]: -0.026
glycan array binding signal (z-score) [19]: -0.079
glycan array binding signal (z-score) [20]: -0.104
glycan array binding signal (z-score) [21]: 0.083
glycan array binding signal (z-score) [22]: 0.001
glycan array binding signal (z-score) [23]: -0.047
glycan array binding signal (z-score) [24]: -0.073
glycan array binding signal (z-score) [25]: 22.9
glycan array binding signal (z-score) [26]: 8.04
glycan array binding signal (z-score) [27]: -0.045
glycan array binding signal (z-score) [28]: -0.129
glycan array binding signal (z-score) [29]: -0.053
glycan array binding signal (z-score) [30]: -0.061
glycan array binding signal (z-score) [31]: -0.088
glycan array binding signal (z-score) [32]: -0.075
glycan array binding signal (z-score) [33]: -0.076
glycan array binding signal (z-score) [34]: -0.091
glycan array binding signal (z-score) [35]: 0.001
glycan array binding signal (z-score) [36]: -0.123
glycan array binding signal (z-score) [37]: -0.067
glycan array binding signal (z-score) [38]: -0.119
glycan array binding signal (z-score) [39]: 0.012
glycan array binding signal (z-score) [40]: -0.11
glycan array binding signal (z-score) [41]: -0.059
glycan array binding signal (z-score) [42]: -0.081
glycan array binding signal (z-score) [43]: -0.089
glycan array binding signal (z-score) [44]: -0.097
glycan array binding signal (z-score) [45]: -0.105
